# Assay results from PMC12136788.
# Some of the results follow.
# T1: UNK ZnF1-3 (human, UniProt Q9C0B0 31-174)
# T1 sequence: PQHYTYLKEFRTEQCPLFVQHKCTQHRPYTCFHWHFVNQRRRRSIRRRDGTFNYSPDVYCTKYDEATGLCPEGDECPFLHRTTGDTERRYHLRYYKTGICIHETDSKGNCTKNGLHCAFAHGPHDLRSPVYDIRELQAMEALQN
# B1: chr1:182352875:182352876:-_ENSG00000135821_ENST00000339526|hu_hu|motif|central (ssRNA)
# RNA: GGGAGUUCUACAGUCCGACGAUCCAUAAUCCACAAAACCAUACAUAUAGUUUUUUGUCUUUACAUUUAAAUAUAAAAAUACGGUUCUGCUUUGUGUGAUAAAUCAAGGACCAAGCAGUAAGAACCUUUUCUUCUUUCAAGGUACAACAGAGGAUUGAGCAUCA
# B2: chr4:108954403:108954404:+_ENSG00000138796_ENST00000309522|hu_hu|FALSE|FALSE (ssRNA)
# RNA: GGGAGUUCUACAGUCCGACGAUCAGUAUCCAGUCCGACAUAAUCUAGAAGCUCAAAUGGGCCCAUGGGGUAACCGGCUCCUAAUUUCAUAGCAGUGUCAAUGUCUUCUUUGGAUGCGUCACCUCGUUCAUACAGCCUGAUUGCCAACAGAGGAUUGAGCAUCA
# B3: chr8:117878989:117878990:-_ENSG00000164754_ENST00000297338|hu_hu|hu_hu_hu_mus_True|18_98 (ssRNA)
# RNA: GGGAGUUCUACAGUCCGACGAUCCCAGAGGCCCUCGUUUACUGAGAACAAAAUGUGCGUAGAACAUUUUUCUUAUUUGCUAUGAAAUAAGAAGAAACCUGGAUCUCGGCGGGGAGCUUGGGCGGGCGGGUGGCCCGGGGAGGGCAACAGAGGAUUGAGCAUCA
# B4: chr10:112361861:112361862:+_ENSG00000108055_ENST00000361804|hu_hu|FALSE|FALSE (ssRNA)
# RNA: GGGAGUUCUACAGUCCGACGAUCAAUAGCUUCAUAUUUCCGAAGUUCAAGUACAUUCAUCAGUUCCAUGAUUGAUUUGUAACCCCUAUCUAACUCUUCUUGACGCUUUAUUAACUUUUCUUUCUGCUCGGAGAAAUUUACAAACAACAGAGGAUUGAGCAUCA
# B5: chr12:4461469:4461470:+_ENSG00000078237_ENST00000179259|hu_hu|FALSE|FALSE (ssRNA)
# RNA: GGGAGUUCUACAGUCCGACGAUCCUGUUCUUUUUGAUCCGCUUCUUUCAGGAUUAGUUGACAAAGAAAUUCAAAAAAGUCUAUUCCACGCAUUUUCACCUGGUCCAGCGUCUCUCCUCCGGGCGGUGUAAACACAGGGCACUCCAACAGAGGAUUGAGCAUCA
# B6: chr2:169732673:169732674:-_ENSG00000152253_ENST00000282074|hu_hu|FALSE|FALSE (ssRNA)
# RNA: GGGAGUUCUACAGUCCGACGAUCAUACAAGUCUGCAGAUUUCUGCAGCCUUUUCAACCUCUCUGCAUUCGCUUUAUUAGCAGUAGAAAUAGUUUCCUUCUUCCUAGAAUAUUCUUCCUUAAGAUCCUGGAUAUUUGCAGUCAGCAACAGAGGAUUGAGCAUCA
# B7: chr3:10015032:10015033:+_ENSMUSG00000027533_ENSMUST00000029046|mus_mus|mus_mus_mus_hu_True|48_98 (ssRNA)
# RNA: GGGAGUUCUACAGUCCGACGAUCGUUUUUACCAUCACACGUAAUGAUACAAUCUGGCUUGGCCAUUGCGCCCAUUUUUCGCAAAGCCAGUCCUACUCCUAGCUCCUUCAUGUAUUCAUCAAAGCCUUUGCUGUCCACCAGGCGCAACAGAGGAUUGAGCAUCA
# B8: 46722910_46723030_89_CDS_ENSG00000069329_ENST00000568784|human|control|control (ssRNA)
# RNA: GGGAGUUCUACAGUCCGACGAUCCCAAAUCGGGCUGGUCUUAAUCCCGAACGGUCUGUGGGGCCCCUUCUCCACUCGCUGGAGUGCGGGGCGGUGGGAGAGAGCAGGGGCUACAAGGAGGGUCGACCCAGGUGCCACUGCCCCCAACAGAGGAUUGAGCAUCA
# B9: chr3:179287964:179287965:+_ENSG00000136518_ENST00000429709|hu_hu|hu_hu_hu_mus_True|18_58 (ssRNA)
# RNA: GGGAGUUCUACAGUCCGACGAUCCUUGAGUGGUGAGAUGGCCUCCAUGUUCUCCCUGGGCACGCGGAGGGCAUUGGUAUCUAUGUAGUAGGUGGGCCCGCCCUGCUUGCCUUUGUCGCCAUCUAUUUCCAUCAUUGUACUUCCCAACAGAGGAUUGAGCAUCA
# B10: chr6:41757443:41757444:+_ENSG00000214736_ENST00000398881|hu_mus|hu_hu_hu_mus_False|58_68 (ssRNA)
# RNA: GGGAGUUCUACAGUCCGACGAUCGAACCGUGCAGAGGCAACAUCUCAGCCGACACUGGGGGAUGGGGGAACAAAAGGAAACUAGGCAGGCAAGGAGAGGGAGUCAACUUCAGCUGCCACUCAGGUAGGAUCUUGUGGUCACAGCAACAGAGGAUUGAGCAUCA
# B11: chrX:101156880:101156881:-_ENSMUSG00000056537_ENSMUST00000070705|mus_mus|motif|central (ssRNA)
# RNA: GGGAGUUCUACAGUCCGACGAUCGAAUAUGGUCCAUUCUUCAGGGCCGUUUUCUUCACCAUCAUGUAUCACUUCCUGCCGGAAUCCAAGUUAAAAUACAUGCUCUCCAUUGGUCUUCAAUGCAGCUGGGUUCUGCACGGUCCUCAACAGAGGAUUGAGCAUCA
# B12: chr5:67446008:67446009:+_ENSMUSG00000037736_ENSMUST00000038188|mus_hu|motif|central (ssRNA)
# RNA: GGGAGUUCUACAGUCCGACGAUCUACCUCCAAAGGUAAGUAACACAAAUGUUUCAGGAUUACAGUAUAUAUUAUCAAACGGGUGUCUUUGCAUUAAAAACAAAUUAUAGCUCAGAGAUAGAGCUUGCUGUGAUGUUUAGUUUCCAACAGAGGAUUGAGCAUCA
# B13: chr1:220276048:220276049:+_ENSG00000067704_ENST00000302637|hu_hu|hu_hu_hu_mus_True|38_48 (ssRNA)
# RNA: GGGAGUUCUACAGUCCGACGAUCGCAAAUUGCCUGGUUGGCGGGAAUUGUCCAAGGCUGGGUGGUCCAAACUAAAACGCUAACAGGAGAUGAACCAUCUAUAAGAGACUCCAACUUCGGAGGAGGUCUCAGGAGGGGGAAUCUCAACAGAGGAUUGAGCAUCA
# B14: chr17:74699132:74699133:-_ENSMUSG00000024067_ENSMUST00000112571|perfect_dup|motif|central (ssRNA)
# RNA: GGGAGUUCUACAGUCCGACGAUCCCCAUUAAGUCAGUUUCGAUCUUCAAACUGUGCCUUGUUUUUUAAAAGAUAAGAUGCGGGAAAUUCAAUGGGAUUUGGUGGUCUUUCCUUUGCAAGCACAGCAAGUCCCUGUAAUAAGAUCAACAGAGGAUUGAGCAUCA
# B15: chr9:66794652:66794653:+_ENSMUSG00000036781_ENSMUST00000040917|mus_mus|FALSE|FALSE (ssRNA)
# RNA: GGGAGUUCUACAGUCCGACGAUCCUGAACCAGCCGUUUCUUCUUAUGUUUUUUCUUCUCCUCCUCCAAGGAAGGGUGUAACAGAUCUCUAGCCAGGGGCAUGGUGACGGCUCCGCAAGCGCGGCCGCUCCAGGUCGCCGAGACCAACAGAGGAUUGAGCAUCA
# B16: 99513462_99515842_1760_3pUTR_ENSMUSG00000041685_ENSMUST00000040340|mouse|control|control (ssRNA)
# RNA: GGGAGUUCUACAGUCCGACGAUCGUUGGAAGUUACAGGUGGGCUGAAUGGCCUGGGUAUUUCAUUGAUCCCACUCAGUUUUCCUGAAGCAAGCUUUGGUCUGGAAGCAGGCCUUGGAGGUGGAACAAGGGUGCCUAAAGAGAGCAACAGAGGAUUGAGCAUCA
# B17: chr9:95013113:95013114:-_ENSG00000196305_ENST00000443024|hu_hu|hu_hu_hu_mus_False|28_78 (ssRNA)
# RNA: GGGAGUUCUACAGUCCGACGAUCCUCAGUCAGAAAGGGCGUGUAAGGGGCCAUCAGUCUGCAAAGAGAAAGCAGGACACUGAACAGUGUCUCCAGAGCCAUGACACAAUCCUCCAUCCCACUCUCACCCUUUAACCUCCUCCUCAACAGAGGAUUGAGCAUCA
# B18: chr2:9570881:9570882:+_ENSG00000119203_ENST00000238112|hu_mus|hu_hu_hu_mus_False|48_58 (ssRNA)
# RNA: GGGAGUUCUACAGUCCGACGAUCACUUGUCUUCUGAAGGAACCAGGGCAGGGCUCCACAGUGAUCCAAAUGGAAAUGACUAAUUAAUAGGAGAUCAAUCUCAGCUGGGUCGAUAAGGUCAAUGUAAGGAAGGGCAUCCAUUCCCAACAGAGGAUUGAGCAUCA
# B19: chr19:8913615:8913616:-_ENSMUSG00000071658_ENSMUST00000096259|mus_hu|mus_mus_mus_hu_False|1_88 (ssRNA)
# RNA: GGGAGUUCUACAGUCCGACGAUCAGGGUACCAAAACCUUCUGCCUGAGAUAGGUGCCCCACCCAGUAGGGAGUUGCAGCUGAAAGUAUCUGAUGCAGAAGCAGUGACUAUACGAAAGGAGGCCCCUGGGGAGGGCCCGAGAUCCAACAGAGGAUUGAGCAUCA
# B20: chr4:136884974:136884975:-_ENSMUSG00000006699_ENSMUST00000030417|mus_mus|motif|central (ssRNA)
# RNA: GGGAGUUCUACAGUCCGACGAUCCACCCACUUUUCUUUCACAUUUUCAAAUGAGGAUGGAGAGACCACUGAGAAACAUACGGGAAAAACAUCUGUCUGUGGAUAACUUAGCGGUCGUAGUCUGUCAUAAUCCUCUUGCCCUGCCAACAGAGGAUUGAGCAUCA
# B21: chr11:50195847:50195848:+_ENSMUSG00000007850_ENSMUST00000123371|mus_mus|FALSE|FALSE (ssRNA)
# RNA: GGGAGUUCUACAGUCCGACGAUCCCAGAUUUCUUACAUUUAUUUGUAUAGGCAAUGACCAGAAAAUUCACUCAAAAGACUAUUUAAACUUUAUAGAAAAAAAGAAAAUAAACUCCUCUGAGGCAGAGCCCAGCCUUAGAGGCACAACAGAGGAUUGAGCAUCA
# B22: chr10:59467614:59467615:+_ENSMUSG00000044475_ENSMUST00000050516|mus_mus|motif|central (ssRNA)
# RNA: GGGAGUUCUACAGUCCGACGAUCAUAGAAAUCCUCGUCUUCUUCAUGUUGGUACUGUUUCUCCUGGAUGGGAUUCUUUCGGUAAUUCCGUCCAUCGAACGUUACAAUCUGUGGGCGUAGAACAUCCAUGACAAAUGACGUUCCCAACAGAGGAUUGAGCAUCA
# Target: T1, UNK ZnF1-3
# Assay: nsRBNS (natural sequence RNA bind-n-seq); RBNS binding buffer (assumed for nsRBNS): 25 mM Tris pH 7.5, 150 mM KCl, 3 mM MgCl2, 0.01% Triton X-100, 500 ug/ml BSA, 20 U/ml SUPERase-In, 4 C; UNK is unkempt and MSI1 is Musashi-1; names of the RNAs are library labels; protein concentration not given here; high values mean tight binding
row,Binder,binding signal
1,B1,0.807 enrichment R
2,B2,1.41 enrichment R
3,B3,1.03 enrichment R
4,B4,0.658 enrichment R
5,B5,0.93 enrichment R
6,B6,0.483 enrichment R
7,B7,0.695 enrichment R
8,B8,0.801 enrichment R
9,B9,0.584 enrichment R
10,B10,2.4 enrichment R
11,B11,0.554 enrichment R
12,B12,0.937 enrichment R
13,B13,1.44 enrichment R
14,B14,0.979 enrichment R
15,B15,0.951 enrichment R
16,B16,1.49 enrichment R
17,B17,1.24 enrichment R
18,B18,1.55 enrichment R
19,B19,1.44 enrichment R
20,B20,1.38 enrichment R
21,B21,2.96 enrichment R
22,B22,0.369 enrichment R
